Read counts are not given, so values of variants with three or more changes are uncertain.

The chains are these.
B1: CPEB3 Ribozyme (parent)
chain: UAACAGGGGGCCACAGCAGAAGCGUUCACGUCGCAGCCCCUGUCAGAUUCUGGUGAAUCUGCGAAUUCUGCUGUAUAUCUC

The variants in this data set derive from B1. Kind of data set: self-cleavage, relative activity (ratio to wild type); higher = more cleavage; in vitro, sequencing. Put shortly:
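CPEB3 self-cleaving ribozyme mutant libraries were made by rounds of error-prone PCR, barcoded, and transcribed in vitro with T7 RNA polymerase for 5 hours at 37°C. Cleavage occurred during transcription and a 15 min DNase I step before EDTA stop. RNAs were reverse transcribed with template switching and Illumina-sequenced, with DNA sequencing mapping barcodes to variants. Relative activity is the variant's cleaved/total read fraction divided by wild type's (minimum 5 reads), averaged across three batches.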
UAGCAGGGUGCCACAGCAGAAGCGUUCACGUCGCAGCACCUGUCUGAUUCUGGUGAAUCUGCGAAUUCUGCUGUAUAUCUC [A3G G9U C38A A45U]: the self-cleavage came to 0.31.
In the case of UAGCAGGGGGCCACAGCAAAAGCGUUCACGGCGCAGCCCCUGUCAGAUUCUGGAGAAUCUGCGAAUUCUGCCGUAUAUCUC [A3G G19A U31G U54A U72C], the self-cleavage stood at 0.11.
For UAGCAGGGUGCUACAGCAGAAGCGUUCACGUCGCAGCCCCUGUCAGUUUCUGGUGAAUCUGCGAAUUCUGCUGUAUAUCUC [A3G G9U C12U A47U], the self-cleavage came to 0.33.
The same measure for UAGCAGGGGGCCACAGCAGAAGCGUUCACCUCGCAGCCCCCGUCAGAUUCUGGUGAAUCUGCGAAUUCUGCUGUAUAUCUC [A3G G30C U41C]: 0.27; for UAGCAGGGUGCCACAGCAGAAGCGUUCACGUCGCAGCCCCUGUCAGAUUCUGGUGGAUCUGCGAAUUCUGCUGUAUAUCUC [A3G G9U A56G]: 0.28.
As to UAGCAGGGGGCCACAGCAUAAGCGUUCACGUCGCAGCCCCAGUCAGAUUCUGGAGAAUCUGCGAAUUCUGCUGUAUAUCUC [A3G G19U U41A U54A], the self-cleavage is 0.09.
As to UAGCAGGAGGCCACAGCAGAAGCGUUCACGUCGCAGCCCCUGUCAGAUUCUGGUGAAUCUGCUAGUUCUGCUGCAUAUCUC [A3G G8A G63U A65G U74C], the self-cleavage turned out to be 0.31.
The same measure for UAGCAGGGGACCACAGCAGGAGCGUACACGUCUCAGCCCCUGUCAGACUCUGGUGAACCUGCGAAUUCUGCUGUAUAUCUC [A3G G10A A20G U26A G33U U48C U58C]: 0.06.
Turning to UAGCAGGGGGCCACAGCAGAAGCGUUCACGUCGCAGCCCCUGUCAGAUUCUUGUGAAUCUGCGAAUUCAGCUGUAUAUCUC [A3G G52U U69A], the self-cleavage came out at 0.59.
Regarding UAGCAGGGAGCCACAGCAGAAGCGUACACGUCGCAGCCCCUGUCAGAUUCUGGUGAGUCCGCGAAUUCUGCUGUAUAUCUC [A3G G9A U26A A57G U60C], the self-cleavage came out at 0.35.
To UAGCAGGCGGCCACAGCAGAAGCGUACACGUCGCAGCCCCUGUCAGAUCCUGUUGAAUCUGCGAAUUCUGCUGUAUAUCCC [A3G G8C U26A U49C G53U U80C] belongs 0.74.
To UAGCAGGUGGCCACAGCAGUAGCGUUCACGUCGCAGCCCCUGUCGGAUUCUGGUGAAUCUGCGAAUUCUGCUGUAUAUCUC [A3G G8U A20U A45G] belongs 0.33; to UAGCAGGGUGCCACAGCAGAAGCAUUCGCGUCGCAGCCCCUGUCAGAUUCUGGUGAAUCAGCGAAUCCCGCUGUAUAUCUC [A3G G9U G24A A28G U60A U67C U69C], 0.07.
Take UAGCAGGGGGCCACAGCAGAAGCAUUCACGUCGCAUCACCUGUCGGAUUCUGGUGAAUCUGCGAAUUCUGCUGUAUAUCUC [A3G G24A G36U C38A A45G]: the self-cleavage came to 0.08.
The same measure for UAGCAGGGGGCCACAGCAGAAGCUUUCACGUCGCAGCCCCUGUCACACUCUGGUGAAUCCGCGAAUUCUGCUGAAUAUCUC [A3G G24U G46C U48C U60C U74A]: 0.11.
The same measure for UAGCAGGGGGCCACAGCAGAAGCGUUCACGUCGCAGCCCCUUUCAGAUUCUGGUGAAUCUGCGGAUUCUGCUGUAUAUCUC [A3G G42U A64G]: 0.48; for UAGCAGGUGGCCACAGCAGAAGCGUUCACGUCGCAGCCCCUGUCAGAUUCUGGUGAGUCUGCGAAUUCUGCAGUAUAUCUC [A3G G8U A57G U72A]: 0.08; for UAGCAGGGGGCCACAGCAGAAGCGCUCACGUCGCGGCCCCUGUCAGAUUCUGGUGAAUCCGCGAAUUCUGCUGUAUAUCUC [A3G U25C A35G U60C]: 0.61.
The same measure for UAGCAGGGGGCCACAUCAGAAGCGUUCGCGUCGCAGCCCCUGACAGAUUCUGGUGAAUCUGCGAAUUCUGCUGUAUAUCUC [A3G G16U A28G U43A]: 0.12; for UAGCAGGGGGCCACAGCAGAAACGCUCACGUCGCGGCCCCUGUCAGAUUCUGGUGAAUCUGUGAAUUCUGCUGAAUAUCUC [A3G G22A U25C A35G C62U U74A]: 0.1.
Turning to UAGCAGGGGGCCACAUCAGAAGCGUUCGCGUCGCAGCCCCUGUCAGAUUCUGGUGAAUCUGCGAAUUCUGCUGUAUAUCCC [A3G G16U A28G U80C], the self-cleavage was determined as 0.63.
For the variant UAGCAGGGGGCCACAGCAGAAACGCUCACGUCGCAGCCCCUGACAGAUUCUGGUGAACCUGCGAAUUCUGCUGAAUAUCUC [A3G G22A U25C U43A U58C U74A], the self-cleavage worked out at 0.08.
The same measure for UAGCAGGGGGCCACAGCAGAAGCUUUCACGCCGCAGCCCCUGUCUGAUUCAGGUGAAUCUGCGAAUUCUGCUGUAUAGCUC [A3G G24U U31C A45U U51A U78G]: 0.25; for UAGCAGGGGGCCACAGCAGAAGCGUUCACAUCGCAGCCCCUGUCAGAUUCUGGAGUAUUUGCGAAUUCUGCUGUAUAUCUC [A3G G30A U54A A56U C59U]: 0.2; for UAGCAGGGGCCCACAGCAGAAGCGUUUACGUCGCAGCCCCUGUCAGAUUCUGGUGAAUCUGCGAACUCUGCUGUAUAUCUC [A3G G10C C27U U66C]: 0.34.
To UAGCAGGGGGCCACAGCAGAAGCGCUCACGUCGCGGCACCUGUCAGAUCCUGGUGAAUCCGCGAAUUCUGCUGUAUAUCUC [A3G U25C A35G C38A U49C U60C] belongs 0.07; to UAGCAGGGGGCCACAGCACAAGCGUUCACGUCGCAGCCCCUGUCAGACUCUGGUGAAUCUGCGAAUUCUGCUGUAUAUCUC [A3G G19C U48C], 0.37.
To UAGCAGGGGGCCACAGCAAAAGCGUUCACGUCGCAGCCCCUGUCAGAUUCUGGUGAAUCUGCGAAUUCUGCUGUAUAUCAC [A3G G19A U80A] belongs 0.13.
With UAGCAGGGGGCCACAGCAGAAGCAUUCACGUCGCAGCCCCUGUCAGAUUCUGGUGAAUCUGCGGAUUCUGCUGUAUAUCUC [A3G G24A A64G], the self-cleavage is 0.35.
For the variant UAGCAGGGGCCCACAGCAGAGGCGUUCACGUCGCAGCCCCUGUCAGGUCCAGGUGAAUCUGCGAAUUCUGCUGUAUAUCUC [A3G G10C A21G A47G U49C U51A], the self-cleavage worked out at 0.05.
UAGCAGGGGGCCACAGCAGAAGCGUUCACGUCGCAGCCCCUAUCUGAUUCUGGUGAAUCUGCGAAUUCUGCUGUAUAUCUC [A3G G42A A45U]: the self-cleavage came out at 0.57.
To UAGCAGGGUGCCACAGCAGGAGCGUUCACGUCGCAGCCCCUGUCAGAUUCUGGUGAAUCUGCGAAUUCUGCUGUAUAUCUC [A3G G9U A20G] belongs 0.37.
The same measure for UAGCAGGGGGCCACAGCAGAAACGUUCACGUCGCAGCCCCUGUCAGAUUCUGGUGAAUCUACGAAUUCUGCUGUAAAACUC [A3G G22A G61A U76A U78A]: 0.05; for UAGCAGGGGGCCACAGCAAAAGCGUUCACGUCGCAGCCCCUGUCAGAUUCUGGCGAAUCUGCGAAUUCUGCAGUACAUCUC [A3G G19A U54C U72A U76C]: 0.24.

Source of the values: the RNAGym collection of RNA variant scans (doi:10.1093/nar/gkz1192).
